Measurements from PubChem BioAssay AID488969 (Vanderbilt High Throughput Screening Facility, 2010).
The full ranking holds about 110,000 compounds; the median of “z-score” is about -0.1, and the highest 2% start at about 2. The list shows a part of the results.

These compounds were tested against Metabotropic glutamate receptor 8 (Rattus norvegicus) (UniProt P70579) (assay: mGluR8 Gi/Go-coupled signaling modulation – cell-based, rat, thallium flux, HTS, primary screen (AID 488969)). Settings: HEK293 rat mGluR8, GIRK (G protein-gated inwardly rectifying potassium channel) thallium flux, FluoZin2; at 10 µM; stronger effect = higher value; submaximal glutamate (EC20) added with thallium.
Sequence of UniProt P70579 (P70579 whole entry, looked up): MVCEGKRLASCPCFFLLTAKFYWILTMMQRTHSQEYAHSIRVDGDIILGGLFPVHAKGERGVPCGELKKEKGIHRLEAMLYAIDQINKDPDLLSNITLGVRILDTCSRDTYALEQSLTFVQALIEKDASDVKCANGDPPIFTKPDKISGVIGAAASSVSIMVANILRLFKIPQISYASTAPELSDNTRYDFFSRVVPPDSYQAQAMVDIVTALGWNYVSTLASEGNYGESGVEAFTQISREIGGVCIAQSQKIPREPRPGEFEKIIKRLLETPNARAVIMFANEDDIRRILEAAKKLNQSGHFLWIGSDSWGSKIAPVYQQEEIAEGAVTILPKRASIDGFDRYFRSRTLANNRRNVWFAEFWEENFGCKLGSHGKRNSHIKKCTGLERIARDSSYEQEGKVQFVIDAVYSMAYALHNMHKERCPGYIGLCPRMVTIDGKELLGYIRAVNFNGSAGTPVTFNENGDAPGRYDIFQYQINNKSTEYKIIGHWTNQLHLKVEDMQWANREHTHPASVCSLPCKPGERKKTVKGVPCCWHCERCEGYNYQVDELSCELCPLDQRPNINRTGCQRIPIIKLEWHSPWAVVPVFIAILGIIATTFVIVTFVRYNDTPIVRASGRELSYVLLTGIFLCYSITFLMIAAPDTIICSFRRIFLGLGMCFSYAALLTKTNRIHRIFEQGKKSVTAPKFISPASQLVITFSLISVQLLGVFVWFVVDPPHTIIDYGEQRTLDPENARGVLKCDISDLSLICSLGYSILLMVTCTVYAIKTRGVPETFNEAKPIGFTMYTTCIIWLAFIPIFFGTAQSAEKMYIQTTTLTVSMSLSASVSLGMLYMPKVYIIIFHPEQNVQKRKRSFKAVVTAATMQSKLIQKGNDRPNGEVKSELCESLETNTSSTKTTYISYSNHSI

Question: How did the z-score turn out when `Cc1cc(C)cc(NC(=S)NCc2cccnc2)c1` was run?
Answer: -0.22

Question: How did the z-score turn out when `CCOC(=O)N1CCN(Cc2ccccc2F)CC1` was run?
Answer: 0.00263

Question: With `COc1cc(C=O)ccc1OCCSc1ccc(Cl)cc1` as the compound, how does the z-score read?
Answer: -0.34

Question: `COC(=O)Cc1ccc2sc(-c3ccccc3)nc2c1` was tested. Which z-score did it give?
Answer: -0.0354

Question: Which z-score does the source give for `O=C(CCNS(=O)(=O)c1ccccc1C(F)(F)F)NCc1ccc2c(c1)OCO2` here?
Answer: 0.0644

Question: For `O=C1c2cccc3c(N4CCCCC4)ccc(c23)C(=O)N1c1ccccn1`, which z-score is on record?
Answer: -1.8

Question: `CCCN(CCO)Cc1cccc(Br)c1` was tested. Which z-score did it give?
Answer: 0.000447

Question: How did the z-score turn out when `CNC(=O)c1[nH]cnc1C(=O)Nc1ccccc1C` was run?
Answer: 0.825

Question: `O=C(CCCC(=O)N(CC(=O)NC1CCCC1)Cc1ccc(F)cc1)Nc1ccccn1` was tested. Which z-score did it give?
Answer: -0.545

Question: For `Cc1cc(NS(=O)(=O)c2ccc(NC(=O)C(CC(C)C)N3C(=O)c4ccccc4C3=O)cc2)nc(C)n1` (stereo unspecified), which z-score is on record?
Answer: -0.338

Question: How did the z-score turn out when `O=C(OCC(=O)N1CCOCC1)c1ccc(Cl)nc1` was run?
Answer: 0.344

Question: `Cc1ccc2nc(SCC(=O)NCc3ccco3)[nH]c2c1` was tested. Which z-score did it give?
Answer: -0.075

Question: With `CCCCOc1ccc(C(=O)Nc2ccc(N3CCN(C(C)=O)CC3)cc2)cc1` as the compound, how does the z-score read?
Answer: 1.89

Question: `Cc1cc(C)n2nc(SCc3cc(=O)oc4ccc5ccccc5c34)nc2n1` was tested. Which z-score did it give?
Answer: -0.493

Question: `COc1ccccc1Cc1noc(COc2cccc(C)c2C)n1` was tested. Which z-score did it give?
Answer: 0.212

Question: How did the z-score turn out when `Cc1ccc(-c2nnc(Oc3cccc(C)c3)c3ccccc23)cc1` was run?
Answer: -0.228

Question: `O=[N+]([O-])c1cc2c(cc1/C=N/Nc1nc(Nc3ccccc3)nc(N3CCCCC3)n1)OCO2` was tested. Which z-score did it give?
Answer: 0.0718

Question: How did the z-score turn out when `CCOc1cccc2cc(C(=O)NCc3cccnc3)c(=O)oc12` was run?
Answer: -0.0081

Question: `O=C(Nc1ccc2c(c1)OCCO2)C1CCCN(S(=O)(=O)Cc2ccccc2)C1` (stereo unspecified) was tested. Which z-score did it give?
Answer: 0.539

Question: For `O=C1c2ccccc2C(=O)N1Cc1ccc2c(c1)OCO2`, which z-score is on record?
Answer: -0.227

Question: `CCNC(=O)/C(=C/c1ccc2c(c1)OCO2)NC(=O)c1ccc(Br)cc1` was tested. Which z-score did it give?
Answer: -0.0861

Question: For `CC1CCCCN1C(=O)COC(=O)c1n[nH]c2ccccc12` (stereo unspecified), which z-score is on record?
Answer: -0.423

Question: With `CN(C)S(=O)(=O)N1CCN(C(=O)c2cccc(Br)c2)CC1` as the compound, how does the z-score read?
Answer: -0.312

Question: For `O=C(C(c1ccccc1)c1ccccc1)N1CCN(Cc2ccc(Br)cc2)CC1`, which z-score is on record?
Answer: 0.0136

Question: Which z-score does the source give for `NS(=O)(=O)c1cccc(NC(=O)COC(=O)/C(=C/c2cccs2)c2cccs2)c1` here?
Answer: -0.195

Question: How did the z-score turn out when `COc1ccccc1-c1nnc(SCC(=O)NCc2c(C)c(Cl)cc(C(C)C)c2O)o1` was run?
Answer: -0.451

Question: With `CCOc1ccc(NC(=O)COC(=O)c2c(OC)cccc2OC)cc1` as the compound, how does the z-score read?
Answer: -0.322

Question: Which z-score does the source give for `O=C1COc2ccc(-c3csc(=Nc4ccc(OC(F)F)cc4)n3CC3CCCO3)cc2N1` (stereo unspecified) here?
Answer: -0.068

Question: How did the z-score turn out when `Cc1cccn2c(N)c(-c3ccccc3)nc12` was run?
Answer: 1.07

Question: How did the z-score turn out when `CC1CCN(S(=O)(=O)c2cccc(-c3csc(-c4cccnc4)n3)c2)CC1` was run?
Answer: 0.341

Question: `CCOc1ccc(CNC(=O)C(CC)n2nc(C)n3c(cc4occc43)c2=O)cc1OC` (stereo unspecified) was tested. Which z-score did it give?
Answer: -1.26
